Laboratory results reported in PubChem BioAssay AID1240 (Sanford-Burnham Center for Chemical Genomics, 2008).
About 800 (1.6%) of roughly 50,000 compounds showed an effect of 50% or more. The list shows a part of the results.

Biological target: Bcl-2-like protein 10 (Homo sapiens) (UniProt Q9HD36)
Test: Phenotype converters, Bcl-B/TR3 peptide binding displacement, primary biochemical FP (AID 1240);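 further: 0% = Bcl-B with tracer peptide and DMSO and 100% = tracer peptide lacking Bcl-B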
Conditions: GST-Bcl-B / FITC-TR3 peptide fluorescence polarization; stronger effect = higher value; compound at 3.75 mg/L

Chain of UniProt Q9HD36 (Q9HD36 whole entry, looked up): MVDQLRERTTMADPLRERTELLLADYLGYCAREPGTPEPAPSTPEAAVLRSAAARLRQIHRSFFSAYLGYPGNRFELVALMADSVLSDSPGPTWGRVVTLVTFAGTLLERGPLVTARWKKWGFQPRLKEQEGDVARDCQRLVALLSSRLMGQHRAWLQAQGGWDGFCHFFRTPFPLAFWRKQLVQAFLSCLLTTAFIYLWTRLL

Row | SMILES | displacement [%]
1 | Cc1ccccc1OCCCn1ccnc1 | -7.2
2 | COc1ccc(Br)cc1/C=C/C(=O)Nc1nc2ccc(C)cc2s1 | -22.6
3 | CCOc1cc(/C=C2/SC(=S)NC2=O)ccc1OC(=O)c1ccco1 | 3.1
4 | Clc1cccc(OCCCCCN2CCOCC2)c1 | -2
5 | O=C(Nc1ccc2c(c1)OCO2)c1cc([N+](=O)[O-])ccc1Cl | -0.4
6 | CC(=O)C1=C(O)C(=O)N(CCCC(=O)O)C1c1ccc(Br)cc1 (stereo not drawn) | -11.5
7 | CCCc1[nH]n(-c2ccc([N+](=O)[O-])cc2)c(=O)c1C=NC1CC(C)(C)NC(C)(C)C1 | 0.1
8 | CC(=O)N1N=C2CC(C)(C)OCC2C1c1ccccc1 (stereo not drawn) | 12
9 | CCOC(=O)C1CCN(C2CC(=O)N(c3ccc(Cl)cc3)C2=O)CC1 (stereo not drawn) | 1.4
10 | CC(NS(=O)(=O)c1ccc2ccccc2c1)c1ccccc1 (stereo not drawn) | -6
11 | CC1=CC(C)(C)Nc2ccc(OC(=O)COc3ccccc3Cl)cc21 | 40.4
12 | COc1ccc(CNC(=S)Nc2cccc(C(F)(F)F)c2)cc1 | -5.2
13 | O=C(COc1ccc(Cl)cc1Cl)Nc1ccc(F)c(Cl)c1 | 0.9
14 | Cc1ccccc1NC(=O)C(=O)NCCCOC(C)C | 3.4
15 | Cc1ccc(C(=O)/C=C/c2ccc3ncccc3c2)cc1 | 8.9
16 | CCN1CC2([N+](=O)[O-])C=C(C(N)=O)CC([N+](=O)[O-])(C1)C2 (stereo not drawn) | -8.4
17 | COc1ccc(/C=C2\C(=O)NC(=S)N(c3ccc(Br)cc3C)C2=O)cc1OC | 9.4
18 | C/C(=N/N1CCN(c2ccccc2)CC1)c1cccc([N+](=O)[O-])c1 | -5.3
19 | CC(O)(C#CCN1CCCCC1)c1ccccc1 (stereo not drawn) | -6.7
20 | O=[N+]([O-])c1ccc(-c2nnc(-c3ccc(Br)o3)o2)c(Cl)c1 | 4.9
21 | COc1cc(/C=C(\C#N)c2nn(CCO)c(N)c2C#N)ccc1OCc1ccc(Cl)cc1Cl | 43.4
22 | Cc1ccc(C23CC4CC(CC(C(=O)NCc5ccccc5)(C4)C2)C3)cc1 | -13.8
23 | Nc1ccc2[nH]nc3c2c1C(=O)c1ccccc1-3 | 104

Row | SMILES | displacement [%]
24 | COc1ccccc1OCC(=O)Nc1c(C)cccc1C(C)C | -4.5
25 | CCN(CC)c1ccc(C(=O)Nc2cccc(F)c2)cc1 | 13.1
26 | Cn1c(C=Nc2ccccc2O)nc2ccccc21 | -2.3
27 | COc1cc2c(cc1OC)Cc1cc(OC)c(OC)cc1C(=O)C2 | 14.8
28 | Cc1nonc1-c1cn2cc(Cl)ccc2n1 | -9.1
29 | N#CSCCCOc1ccccc1F | -4.7
30 | COc1ccc(C(=O)/C=C/Nc2ccc(Cl)cc2[N+](=O)[O-])cc1OC | 11.8
31 | NC(CC(=O)OC1CCCCC1)C(=O)OC1CCCCC1 (stereo not drawn) | 74.3
32 | N#Cc1c(Nc2ccccc2)ccn(CC(=O)c2ccccc2)c1=O | -9
33 | COCCCNc1ncnc2ccc(Br)cc12 | -7.3
34 | COC(=O)C1=NN(C(=O)c2cccc(Br)c2)C(O)(c2ccc(Cl)cc2)C1 (stereo not drawn) | 12.7
35 | O=C(CCN1C(=O)c2ccccc2C1=O)Nc1cccc(Cl)c1 | 6.1
36 | COc1ccc(C2=NC(=Cc3ccc(Br)cc3)C(=O)O2)cc1 | 22.5
37 | Nn1cnc2c(c1=O)C1(CCCC1)Cc1ccccc1-2 | 0.8
38 | Cc1ccc(C(C)C)c(OCCOc2ccc(Cl)cc2/C=N/n2cnnc2)c1 | -1.7
39 | COc1ccc(C2Nc3cccc4cccc(c34)N2)cc1O | 23.9
40 | COc1ccc2nc(NC(=O)c3cc4ccccc4o3)sc2c1 | 9.2
41 | COc1ccc(C(=O)NC(Oc2ccc(Cl)cc2)C(Cl)(Cl)Cl)cc1OC (stereo not drawn) | -4.1
42 | CC1CCc2c(sc(NC(=O)c3c(F)c(F)c(F)c(F)c3F)c2C#N)C1 (stereo not drawn) | 12.9
43 | CCCNC(=O)c1c(NC(=O)c2ccccc2F)sc2c1CCC(C)C2 (stereo not drawn) | 16.4
44 | O=C(c1ccco1)c1coc2ccc(Cl)cc2c1=O | 8.8
45 | O=C(CN(c1ccccc1)S(=O)(=O)c1ccccc1[N+](=O)[O-])N1CCCC1 | 7.3
46 | Clc1ccc(OCCCN2CCCCC2)cc1 | -10

Row | SMILES | displacement [%]
47 | C/C(=N/NC(=O)c1ccccc1)C1CC1 | 18.4
48 | CC(C)(C)c1ccc(-c2nnc(-c3ccc4c(c3)OCO4)o2)cc1 | -9.2
49 | O=C(O)CCCCCN1C(=O)C(=O)/C(=C(/O)c2ccc([N+](=O)[O-])cc2)C1c1ccccc1F (stereo not drawn) | 18.3
50 | COc1ccc(NC(=O)C(=O)NCc2ccccn2)c(OC)c1 | 9.1
51 | Cc1ccc(N(CC(O)CN2CCCCC2)S(=O)(=O)c2ccc(C)cc2)cc1 (stereo not drawn) | -2.2
52 | CC(=O)OCCNC(=O)/C(=C\c1ccc(Br)cc1)NC(=O)c1ccc(Br)o1 | -5.6
53 | Cc1ccccc1/C=C1/SC(N)=NC1=O | 3.6
54 | CC(C)CC(NC(=O)c1ccccc1)C(=O)OCC(=O)Nc1cccc2ccccc12 (stereo not drawn) | -1.7
55 | O=[N+]([O-])c1ccc(S(=O)(=O)N2CCN(c3ccccn3)CC2)cc1 | -0.6
56 | O=C(NN1C(=O)/C(=C/c2cccc(F)c2)SC1=S)c1ccncc1 | 15.5
57 | CN1CCN(C(=O)Nc2ccccc2)CC1 | -1.2
58 | O=C(Nc1ccccc1C(=O)Nc1ccncc1)c1ccccc1 | 8
59 | CSc1nc2ccc(NC(=O)CSc3nc4ccc([N+](=O)[O-])cc4s3)cc2s1 | 12.3
60 | COc1ccccc1NC(=O)COc1ccc(C)c(C)c1 | 9.9
61 | COc1ccc(CN2CCN(S(=O)(=O)c3ccc(Cl)cc3)CC2)cc1Br | -5
62 | Cc1ccccc1OCC(=O)N/N=C/c1cn(C)c2ccccc12 | 0.7
63 | Nc1nc2n(n1)C(c1ccccc1)C=C(c1ccccc1)N2 (stereo not drawn) | 13.6
64 | COc1ccc(C2CC(C(F)(F)F)n3nc(C(=O)Nc4cccc(C(C)O)c4)cc3N2)cc1 (stereo not drawn) | 4.5
65 | CN(C)c1nnc(-c2ccccc2)c(-c2ccccc2)n1 | -10.7
66 | COc1ccccc1N1CCN(C(=O)CN(c2ccc(C)cc2)S(=O)(=O)c2ccc(F)cc2)CC1 | -12.6
67 | O=C(O)C1C2CCC(C2)C1C(=O)Nc1nccs1 (stereo not drawn) | -0.4
68 | Cn1c(O)c(N=Nc2ccccn2)c2ccccc21 | 24.2
69 | CCC1=NN(C(=O)c2ccccc2Br)C(O)(c2ccncc2)C1 (stereo not drawn) | -26.2

Row | SMILES | displacement [%]
70 | COc1ccc(OC)c(C=NNC(=O)Cn2nnc3ccccc32)c1 | -8.8
71 | O=C(CSCCNS(=O)(=O)c1ccccc1)Nc1ccccc1 | -4.9
72 | O=C(N/N=C/c1ccc(O)c([N+](=O)[O-])c1)c1cccnc1 | 3.9
73 | COc1cc(/C=C2\C(=O)NC(=O)N(c3cc(C)cc(C)c3)C2=O)cc(OC)c1O | 12.1
74 | CCN(CC)c1ccc(NC(=O)C2CCC(C)(C(=O)O)C2(C)C)cc1 (stereo not drawn) | -4.7
75 | CC(C)CCNC(=O)c1cc([N+](=O)[O-])ccc1Cl | 0.5
76 | CCOC(=O)c1ccc(NC(=O)CN(c2ccc(Br)cc2)S(C)(=O)=O)cc1 | -1.2
77 | COc1ccc(NC(=O)CN(c2ccc(Oc3ccccc3)cc2)S(C)(=O)=O)cc1OC | 12.7
78 | O=C(CCCOc1ccc(Cl)cc1Cl)N1CCN(Cc2ccccc2)CC1 | -1.3
79 | COc1ccc(OC)c(/C=C(\C#N)c2ccc([N+](=O)[O-])cc2)c1 | 4
80 | Cc1ccc(C)c(N2C(=O)C3C(C2=O)C2(C)C(=O)C3(C)C(c3ccccc3)=C2c2ccccc2)c1 (stereo not drawn) | -16
81 | COc1ccc(/C=N/Nc2nc(-c3ccc(C)cc3)nc3ccccc23)cc1OC | 0.5
82 | Cc1ccccc1OCCn1cc(C=C2C(=O)NC(=S)NC2=O)c2ccccc21 | 6.1
83 | Cc1ccc(NS(=O)(=O)c2ccc(F)cc2)nc1 | -3
84 | Cc1cc(OCC(=O)Nc2ccc(Cl)c(C(F)(F)F)c2)ccc1Br | -8.4
85 | O=C(CCCOc1ccccc1)Nc1ccc(OCc2ccccc2)cc1 | 1.2
86 | Cc1ccc2nsnc2c1NC(=O)c1cc(Br)ccc1Cl | 1.4
87 | Brc1ccc(-c2nnc(SCCCCOc3ccccc3)o2)cc1 | -6.7
88 | Cc1cc(Nc2ccc(C)c(Cl)c2)n2ncnc2n1 | 10.6
89 | CC(C)c1ccc(NC(=O)C2CC2)cc1 | -3.3
90 | CC(=O)Nc1ccc(NC(=O)COc2ccccc2)cc1 | -3.3
91 | O=C(Nc1nccs1)c1ccc2c(c1)C(=O)N(CC1CCCO1)C2=O (stereo not drawn) | -0.3
92 | CN(C)CCOC(=O)CCN1C(=O)/C(=C/c2ccc(Cl)cc2Cl)SC1=S | 10.9

Row | SMILES | displacement [%]
93 | Clc1ccc(-c2noc(-c3ccccc3Br)n2)cc1 | -0.6
94 | COc1ccc(C(NC(=O)c2ccccc2C)NC(=O)c2ccccc2C)cc1OC | 2.3
95 | O=C(NCCCNc1ccc([N+](=O)[O-])cc1)c1cc(F)c(F)cc1Cl | 5.6
96 | CC(=O)NC1=NC(=O)/C(=C/c2cc(C)n(-c3ccc(C(=O)O)cc3)c2C)S1 | -89.7
97 | CCOC(=O)C1=C(C)N=c2s/c(=C\c3cccc(O)c3)c(=O)n2C1c1cccc(OC)c1 (stereo not drawn) | 41.3
98 | Cn1c(NC(=O)c2ccc(Cl)cc2[N+](=O)[O-])cc(=O)n(C)c1=O | -6.6
99 | Cn1ccnc1SCC(=O)c1ccc(Cl)cc1 | 14.7
100 | NS(=O)(=O)c1ccc(NC(=O)c2cncc(Br)c2)cc1 | -7.5
101 | CCCCN1C2=NCCCN2c2ccccc21 | 4.2
102 | CC1(C)c2ssc(=S)c2-c2ccccc2N1C(=O)CN1CCCCC1 | 8.8
103 | COc1cccc(NC(=O)c2ccco2)c1 | 2.2
104 | CCCOc1cccc(C(=O)Nc2ccc(NC(=O)c3ccco3)c(OC)c2)c1 | 4.4
105 | CCc1cccc(NC(=O)Cc2ccccc2)c1 | -3.1
106 | Cc1cc(/C=C2/SC(=O)NC2=O)c(C)n1-c1ccc(C(C)(C)C)cc1 | 16
107 | Cc1ccc(C(=O)NN(c2ccccc2)c2ccccc2)cc1[N+](=O)[O-] | -3.2
108 | CCCCc1c(C)nc2c(C)cccc2c1SCC(=O)O | -8.1
109 | COc1cc(OC)cc(C(=O)Nc2cc(C)ccc2C)c1 | 13.6
110 | Cc1sc(NS(=O)(=O)c2ccc([N+](=O)[O-])cc2)nc1-c1ccc(Br)cc1 | -2.7
111 | CCOC(=O)c1ccc(NC(=O)CN(c2ccc(Oc3ccccc3)cc2)S(C)(=O)=O)cc1 | -2.7
112 | CCc1ccc(OCC(=O)Nc2ccc(-c3nc4ccccc4o3)c(O)c2)cc1 | 0.8
113 | COC(=O)c1ccc(/C=N/NC(=O)CSc2nnc(-c3ccccc3)n2-c2ccccc2)cc1 | 13.8
